Data: patent US9562022B2 (priority 2009, dated 2017)

Test system: P23H opsin
Settings: 20 μM test compound; HEK 293 cells; % of mature P23H opsin (~52 kDA) relative to control 9-cis retinal at 20 uM defined as 100% response

| SMILES | Increase in Mature P23H Opsin [% @ 20 μM] |
| --- | --- |
| CC1=C(/C=C/C(=O)N2CCOCC2)C(C)(C)CCC1 [Compound 6, (E)-1-Morpholino-3-(2,6,6-trimethylcyclohex-1-enyl)prop-2-en-1-one] | 113 |
| CCS(=O)(=O)N1CCCN(C(=O)/C=C/C2=C(C)CCCC2(C)C)CC1 [Compound 21, (E)-1-(4-(Ethylsulfonyl)-1,4-diazepan-1-yl)-3-(2,6,6-trimethylcyclohex-1-enyl)prop-2-en-1-one] | 89 |
| CCNC(=O)N1CCCN(C(=O)/C=C/C2=C(C)CCCC2(C)C)CC1 [Compound 15, (E)-N-Ethyl-4-(3-(2,6,6-trimethylcyclohex-1-enyl)acryloyl)-1,4-diazepane-1-carboxamide] | 113 |
| CC1=C(/C=C/C(=O)N2CCN(C(=O)NC(C)C)CC2)C(C)(C)CCC1 [Compound 37, (E)-N-Isopropyl-4-(3-(2,6,6-trimethylcyclohex-1-enyl)acryloyl)piperazine-1-carboxamide] | 136 |
| CNC(=O)N1CCCN(C(=O)/C=C/C2=C(C)CCCC2(C)C)CC1 [Compound 14, (E)-N-Methyl-4-(3-(2,6,6-trimethylcyclohex-1-enyl)acryloyl)-1,4-diazepane-1-carboxamide] | 144 |
| CC1=C(/C=C/C(=O)N2CCCN(C(=O)NC(C)C)CC2)C(C)(C)CCC1 [Compound 17, (E)-N-Isopropyl-4-(3-(2,6,6-trimethylcyclohex-1-enyl)acryloyl)-1,4-diazepane-1-carboxamide] | 132 |
| CCCN1CCN(C(=O)/C=C/C2=C(C)CCCC2(C)C)CC1 [Compound 29, (E)-1-(4-Propylpiperazin-1-yl)-3-(2,6,6-trimethylcyclohex-1-enyl)prop-2-en-1-one] | 97 |
| CCNC(=S)N1CCN(C(=O)/C=C/C2=C(C)CCCC2(C)C)CC1 [Compound 44, (E)-N-Ethyl-4-(3-(2,6,6-trimethylcyclohex-1-enyl)acryloyl)piperazine-1-carbothioamide] | 136 |
| CCCNC(=S)N1CCN(C(=O)/C=C/C2=C(C)CCCC2(C)C)CC1 [Compound 45, (E)-N-Propyl-4-(3-(2,6,6-trimethylcyclohex-1-enyl)acryloyl)piperazine-1-carbothioamide] | 122 |
| CNC(=O)N1CCN(C(=O)/C=C/C2=C(C)CCCC2(C)C)CC1 [Compound 34, (E)-N-Methyl-4-(3-(2,6,6-trimethylcyclohex-1-enyl)acryloyl)piperazine-1-carboxamide] | 155 |

Same assay, conditions: control at 20 uM, defined as producing a 100% response

| SMILES | % of mature P23H opsin (~52 kDA) produced in the HEK 293 cells [%] |
| --- | --- |
| CC1=C(/C=C/C(C)=C\C=C\C(C)=C\C=O)C(C)(C)CCC1 [9-cis retinal, reference compound] | 100 |
